According to PubChem BioAssay AID360 (National Center for Advancing Translational Sciences (NCATS), 2006):
Out of some 48,000 compounds screened, about 550 (1.1%) were called active. Roughly 4% stayed inconclusive and do not appear here. Rule as the data show it: active = potency below about 15 µM; inconclusive = mostly about 16 µM to 33 µM; inactive = weaker than that. The list shows a part of the results.

Each compound was assayed against Lysosomal acid glucosylceramidase (Homo sapiens) (UniProt P04062) (assay: Glucocerebrosidase). Conditions: purified enzyme, resorufin glucoside fluorescence (screen aimed at inhibitors), 20 min; series mostly up to 77 µM.
Summary of the method: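 Compounds titrated against 0.2 nM normal enzyme, 30 uM resorufin beta-D-glucopyranoside substrate, citrate/phosphate buffer with taurocholate and tween-20, pH 5.9. Reaction ran 20 min at room temperature; fluorescence (Ex 548/Em 600) gave AC50.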
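Also: the screen sought inhibitors.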
Potency is read from the fitted curve at half-maximal effect.

Sequence of UniProt P04062 (P04062 whole entry, looked up): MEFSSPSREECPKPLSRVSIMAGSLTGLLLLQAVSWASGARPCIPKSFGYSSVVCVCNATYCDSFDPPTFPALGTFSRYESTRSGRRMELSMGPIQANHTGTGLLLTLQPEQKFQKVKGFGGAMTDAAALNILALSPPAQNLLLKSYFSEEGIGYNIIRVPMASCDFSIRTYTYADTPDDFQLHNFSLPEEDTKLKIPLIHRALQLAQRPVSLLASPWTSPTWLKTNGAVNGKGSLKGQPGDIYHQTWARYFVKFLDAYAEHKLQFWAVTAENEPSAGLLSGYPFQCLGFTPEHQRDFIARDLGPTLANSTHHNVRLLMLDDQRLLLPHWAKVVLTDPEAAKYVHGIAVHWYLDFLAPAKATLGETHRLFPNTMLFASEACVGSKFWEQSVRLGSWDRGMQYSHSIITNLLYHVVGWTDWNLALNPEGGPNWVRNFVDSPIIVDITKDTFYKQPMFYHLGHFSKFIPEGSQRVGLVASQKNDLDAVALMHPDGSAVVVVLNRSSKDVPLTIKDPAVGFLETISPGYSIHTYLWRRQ

Potency, inactive:
COc1ccc(-c2nnc(CSc3nnc(-c4ccncc4)n3C3CCCCC3)o2)cc1OC > 76.9 µM, CC(C)c1nnc(NC(=O)c2cnccn2)s1 > 76.9 µM, O=c1c2c(-c3ccco3)csc2nc(SCc2cn3cccnc3n2)n1-c1ccccc1 > 76.9 µM, CSCCC(NS(=O)(=O)c1ccc2c(c1)OCCO2)C(=O)NCCc1ccccn1 (stereo unspecified) > 76.9 µM, CC(=O)Nc1nn(C)c2nc3cc(C)ccc3cc12 > 76.9 µM, O=S1(=O)NC(=NCc2ccco2)c2ccccc21 > 76.9 µM, N#Cc1c(NCc2ccccc2)ccnc1NCc1cccnc1 > 76.9 µM, CCc1cc2c(=O)n(C(C)C(=O)OC3CCCCC3)cnc2s1 (stereo unspecified) > 76.9 µM, CCCCS(=O)(=O)NC1=NCN(C2CCN(Cc3ccccc3)CC2)CN1 > 76.9 µM, Cc1ccc(N(C(=O)C2CCCC2)C2C=CS(=O)(=O)C2)cc1 (stereo unspecified) > 76.9 µM, COC(=O)c1ccc(C)c(NC(=O)Cc2coc3cc(OC)ccc23)c1 > 76.9 µM, O=C(NCC(=O)N(c1ccc2c(c1)OCO2)C(C(=O)NC1CCCC1)c1ccncc1)c1ccco1 (stereo unspecified) > 76.9 µM, O=C(CSC1=NCCS1)N1CCc2ccccc21 > 76.9 µM, Cc1cc(C(F)(F)F)nn1CC(=O)N1CCCC1 > 76.9 µM, O=C(Nc1nnc(CC(=O)N2CCOCC2)s1)c1cccs1 > 76.9 µM, COc1ccc2c(c1)C(C)CC(C)(C)N2C(=O)CSc1ncn[nH]1 (stereo unspecified) > 76.9 µM, O=C1c2ccccc2NC(c2ccc3c(c2)OCCO3)N1c1ccc2c(c1)OCCO2 (stereo unspecified) > 76.9 µM, Cc1cc(C)c2c(n1)nn1c(NCCCN3CCOCC3)cc(C)nc21 > 76.9 µM, Cn1c(CCNC(=O)c2ccccc2)nc2cc(NC(=O)c3ccco3)ccc21 > 76.9 µM, Cc1onc(-c2ccccc2Cl)c1C(=O)NCc1ccccn1 > 76.9 µM, Cc1noc(C)c1CSc1nnc2n(-c3ccccc3)c(=O)c3ccccc3n12 > 76.9 µM, CC(=O)NCCc1csc(-c2ccccc2)n1 > 76.9 µM, COc1ccccc1NC(=O)CSc1nc2nc(C)cc(C)c2c(=O)[nH]1 > 76.9 µM, C=CCSc1n[nH]c(-c2ccc(OC)cc2)n1 > 76.9 µM, O=C(COc1nnnc2ccccc12)N1CCCc2ccccc21 > 76.9 µM, CCCCC(=O)NCCc1cc2ccc(OC)cc2[nH]c1=O > 76.9 µM, COC(=O)Nc1c(-c2ccccc2)nc2ccccn12 > 76.9 µM, Cc1noc(NS(=O)(=O)c2ccc(NC(=O)c3ccoc3C)cc2)c1C > 76.9 µM, CCCCNC(=O)CCCn1c(=S)[nH]c2cc3c(cc2c1=O)OCO3 > 76.9 µM, CCC(Sc1nnnn1-c1ccccc1)C(=O)NC(C)c1ccccc1 (stereo unspecified) > 76.9 µM, Cc1ccc(-c2cc(C(F)(F)F)c(C#N)c(SCCC#N)n2)o1 > 76.9 µM, O=C(CCSc1nc(-c2ccco2)cc(C(F)(F)F)n1)NCC1CCCO1 (stereo unspecified) > 76.9 µM, CCc1c(C(=O)NCc2ccccc2Cl)[nH]c(C)c1C(C)=O > 76.9 µM, CC(C)NC(=O)CSc1nnc2sc3ccccc3n12 > 76.9 µM, COC(=O)NC1(C(F)(F)F)C(=O)NC(C)=C1C(=O)OC (stereo unspecified) > 76.9 µM, CC(=O)c1ccccc1NS(=O)(=O)c1c(C)nn(-c2ccccc2)c1C > 76.9 µM, Cc1ccc(NC(=O)CN2CCCCCC2)c(Br)c1 > 76.9 µM, CCOC(=O)Nc1ccc(S(=O)(=O)Nc2cc(C)on2)cc1 > 76.9 µM, Cc1ccccc1-n1c(SCC(=O)c2cc(C)n(C)c2C)nnc1-c1ccncc1 > 76.9 µM, COc1cccc(C(=O)Cn2c(=N)n(C)c3ccccc32)c1, O=C(Nc1cccc(Br)c1)c1ccn[nH]1 > 76.9 µM, CS(=O)(=O)N1CCN(c2ccc(NC(=O)c3ccc(Br)o3)cc2)CC1 > 76.9 µM, Cc1oc2nc(SCC(=O)N3CCCCC3)nc(N)c2c1C > 76.9 µM, Cc1cc(Nc2ccc(N3CCC(C)CC3)cc2)n2ncnc2n1 > 76.9 µM, COc1cccc(OC)c1C(=O)Nc1cc(Cl)ccc1N1CCOCC1 > 76.9 µM, Cc1nnc(C)c2c(C)n(Cc3ccc4c(c3)OCO4)c(C)c12 > 76.9 µM, CCn1cc(NC(=O)Nc2ccccc2C(=O)OC)c(C(N)=O)n1 > 76.9 µM, COc1ccc(CNC(=O)C(OC(C)=O)c2ccccn2)cc1 (stereo unspecified) > 76.9 µM, CCC(CC)n1[nH]c(=O)c2c(C)cc(C)nc21 > 76.9 µM, CCOC(=O)c1cc2c(=O)n3ccccc3nc2n(C(C)C)c1=NC(=O)c1ccncc1 > 76.9 µM, O=C(NCCS(=O)CCNC(=O)C(F)(F)F)C(F)(F)F > 76.9 µM, O=c1c2[nH]c3ccccc3c2ncn1Cc1ccncc1 > 76.9 µM, CN1C(=O)c2ccccc2C(C(=O)NCC2CCCO2)C1c1c[nH]c2ccccc12 (stereo unspecified) > 76.9 µM, O=C(CN1CCN(Cc2ccc3c(c2)OCO3)CC1)Nc1ccc2c(c1)OCCO2 > 76.9 µM, COc1cc2[nH]c(=S)n(NC(=O)CC(C)C)c(=O)c2cc1OC > 76.9 µM, COc1cccc(NC(=O)N(Cc2ccco2)C(C)c2cccs2)c1 (stereo unspecified) > 76.9 µM, O=C(CC1N=C2c3ccccc3N=C(SCc3ccc(F)cc3)N2C1=O)NCc1ccco1 (stereo unspecified) > 76.9 µM, CC1(C)CC(=O)C=C(Nc2ccccc2O)C1 > 76.9 µM, Cc1cc(=O)n2c(n1)OC(CO)C2 (stereo unspecified) > 76.9 µM, Cc1cc(C)cc(NC2=NCC(=O)N2Cc2ccccc2)c1 > 76.9 µM, Cc1cc2c(c(=O)n1CCN(C)C)C(c1ccc(Cl)cc1)C(C#N)=C(N)O2 (stereo unspecified) > 76.9 µM, COc1ccc(OC)c(NS(=O)(=O)c2ccc3c(c2)n(C)c(=O)n3C)c1 > 76.9 µM, CCOC(=O)c1oc2ccccc2c1NC(=O)COc1ccc(F)cc1 > 76.9 µM, O=C(Cn1nnc(-c2ccc(CN3CCOCC3)cc2)n1)NC1CCCCC1 > 76.9 µM, CC1(C)CNC(=O)C=C(c2ccccc2)C1 > 76.9 µM, c1ccc(Cn2nnnc2C(c2cccs2)N2CCOCC2)cc1 (stereo unspecified) > 76.9 µM, O=C(/C=C/Nc1ccc(F)c(Cl)c1)c1ccco1 > 76.9 µM, CCOC(=O)c1oc2ccccc2c1NC(=O)COc1cccc(OC)c1 > 76.9 µM, CCN(CC)S(=O)(=O)c1cccc(-c2nnc(SCC(=O)NC)n2CCc2ccccc2)c1 > 76.9 µM, CCCCOC(=O)CSc1nc2c(cc1C#N)C(=O)CC(C)(C)C2 > 76.9 µM, O=C(CN1C(=O)c2ccccc2C1=O)Nc1ccc(N2CCOCC2)cc1 > 76.9 µM, COCCn1nnnc1C1(N(Cc2cc3cc(C)ccc3[nH]c2=O)CC2CCCO2)CCN(C)CC1 (stereo unspecified), COc1ccccc1N(CC(=O)Nc1ccccc1C(=O)NCC(C)C)S(C)(=O)=O > 76.9 µM, Cc1nc(COC(=O)c2ccc(CO)cc2)cs1 > 76.9 µM, CC(C)CCn1cnc2c(cnn2-c2ccc(F)cc2)c1=O > 76.9 µM, Cc1noc(C)c1S(=O)(=O)N1CCCC(C(=O)N2CCC(C)CC2)C1 (stereo unspecified) > 76.9 µM, COc1cccc(=O)c2c(C)oc(C)c12 > 76.9 µM, Cc1ccc(-c2noc(-c3ccccc3C(=O)NCC3CCCO3)n2)cc1 (stereo unspecified) > 76.9 µM, O=C(Cn1cnc2c(nnn2Cc2ccc(F)cc2)c1=O)N1CCCc2ccccc21 > 76.9 µM, COc1ccccc1C(=O)Nc1ccc(S(=O)(=O)Nc2cc(C)on2)cc1, CCSc1nc2c(c(=O)[nH]1)C(c1ccncc1)C(C(=O)OC(C)C)=C(C)N2 (stereo unspecified) > 76.9 µM, CN(C(=O)c1ccc2c(c1)OCO2)C1(C(=O)NC2CCCCC2)CCCCC1 > 76.9 µM, Clc1ccc(-c2nn3c(-c4ccccc4)nnc3s2)cc1 > 76.9 µM, Cc1c(C(=O)NCc2ccc3c(c2)OCO3)oc2ccc(S(=O)(=O)N3CCCC3)cc12 > 76.9 µM, CC(=O)c1ccc(S(=O)(=O)NCCCC(=O)NCCc2ccccn2)cc1 > 76.9 µM, Cc1ccc2[nH]c(C)c(CN(C)C3CCN(C)CC3)c(=O)c2c1 > 76.9 µM, O=C(C1CCN(S(=O)(=O)c2cccnc2)CC1)N1CCN(c2ccccc2Cl)CC1 > 76.9 µM, Cc1c(N(C(=O)Nc2ccccc2)C2=NCC(C)S2)c(=O)n(-c2ccccc2)n1C (stereo unspecified) > 76.9 µM, O=C(COC(=O)c1n[nH]c2ccccc12)NC(=O)NCc1ccco1 > 76.9 µM, COc1ccccc1CNC(=O)c1ccc(NS(C)(=O)=O)cc1 > 76.9 µM, C=CCn1c(SCC(=O)Nc2ccccc2C)nnc1-c1ccncc1 > 76.9 µM
